PubChem BioAssay AID504333 (National Center for Advancing Translational Sciences (NCATS), 2011)
“And” between values parts separate entries of the source, which are not always exact repeats. Identical values can stand only once. The campaign covered roughly 360,000 compounds. About 16,000 (4.4%) were called active. Inconclusive results, whose numbers are uncertain, are shown with a selection of clear calls. Calls come from the whole dose curve; as a rule, active = well fitted inhibition curve with a large enough effect; inconclusive = small, poorly fitted or top-dose-only effect; inactive = no such curve, though single readings can be large or run the other way. Potencies of inconclusive entries are doubtful fits and often do not repeat.

Target: Bromodomain adjacent to zinc finger domain protein 2B (Homo sapiens) (UniProt Q9UIF8)
Assay: qHTS Assay for Inhibitors of BAZ2B; note: nearly all actives have a fitted effect of over 60% in size
Conditions: AlphaScreen BAZ2B-H3K14Ac peptide displacement; series mostly up to 114 µM
Outline: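 AlphaScreen displacement of biotin-H3(5-23)K14Ac peptide (50 nM final) from BAZ2B (50 nM final) in PBS pH 7.4, 0.01% Tween-20; complex preformed 30 min RT, then compounds (top 110 uM) 30 min RT, beads 20 min dark.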
Potency is the fitted concentration of half-maximal effect; tags give direction and shape of the fitted curve.

UniProt Q9UIF8, sequence (Q9UIF8 whole entry, looked up, the tested form may be a part): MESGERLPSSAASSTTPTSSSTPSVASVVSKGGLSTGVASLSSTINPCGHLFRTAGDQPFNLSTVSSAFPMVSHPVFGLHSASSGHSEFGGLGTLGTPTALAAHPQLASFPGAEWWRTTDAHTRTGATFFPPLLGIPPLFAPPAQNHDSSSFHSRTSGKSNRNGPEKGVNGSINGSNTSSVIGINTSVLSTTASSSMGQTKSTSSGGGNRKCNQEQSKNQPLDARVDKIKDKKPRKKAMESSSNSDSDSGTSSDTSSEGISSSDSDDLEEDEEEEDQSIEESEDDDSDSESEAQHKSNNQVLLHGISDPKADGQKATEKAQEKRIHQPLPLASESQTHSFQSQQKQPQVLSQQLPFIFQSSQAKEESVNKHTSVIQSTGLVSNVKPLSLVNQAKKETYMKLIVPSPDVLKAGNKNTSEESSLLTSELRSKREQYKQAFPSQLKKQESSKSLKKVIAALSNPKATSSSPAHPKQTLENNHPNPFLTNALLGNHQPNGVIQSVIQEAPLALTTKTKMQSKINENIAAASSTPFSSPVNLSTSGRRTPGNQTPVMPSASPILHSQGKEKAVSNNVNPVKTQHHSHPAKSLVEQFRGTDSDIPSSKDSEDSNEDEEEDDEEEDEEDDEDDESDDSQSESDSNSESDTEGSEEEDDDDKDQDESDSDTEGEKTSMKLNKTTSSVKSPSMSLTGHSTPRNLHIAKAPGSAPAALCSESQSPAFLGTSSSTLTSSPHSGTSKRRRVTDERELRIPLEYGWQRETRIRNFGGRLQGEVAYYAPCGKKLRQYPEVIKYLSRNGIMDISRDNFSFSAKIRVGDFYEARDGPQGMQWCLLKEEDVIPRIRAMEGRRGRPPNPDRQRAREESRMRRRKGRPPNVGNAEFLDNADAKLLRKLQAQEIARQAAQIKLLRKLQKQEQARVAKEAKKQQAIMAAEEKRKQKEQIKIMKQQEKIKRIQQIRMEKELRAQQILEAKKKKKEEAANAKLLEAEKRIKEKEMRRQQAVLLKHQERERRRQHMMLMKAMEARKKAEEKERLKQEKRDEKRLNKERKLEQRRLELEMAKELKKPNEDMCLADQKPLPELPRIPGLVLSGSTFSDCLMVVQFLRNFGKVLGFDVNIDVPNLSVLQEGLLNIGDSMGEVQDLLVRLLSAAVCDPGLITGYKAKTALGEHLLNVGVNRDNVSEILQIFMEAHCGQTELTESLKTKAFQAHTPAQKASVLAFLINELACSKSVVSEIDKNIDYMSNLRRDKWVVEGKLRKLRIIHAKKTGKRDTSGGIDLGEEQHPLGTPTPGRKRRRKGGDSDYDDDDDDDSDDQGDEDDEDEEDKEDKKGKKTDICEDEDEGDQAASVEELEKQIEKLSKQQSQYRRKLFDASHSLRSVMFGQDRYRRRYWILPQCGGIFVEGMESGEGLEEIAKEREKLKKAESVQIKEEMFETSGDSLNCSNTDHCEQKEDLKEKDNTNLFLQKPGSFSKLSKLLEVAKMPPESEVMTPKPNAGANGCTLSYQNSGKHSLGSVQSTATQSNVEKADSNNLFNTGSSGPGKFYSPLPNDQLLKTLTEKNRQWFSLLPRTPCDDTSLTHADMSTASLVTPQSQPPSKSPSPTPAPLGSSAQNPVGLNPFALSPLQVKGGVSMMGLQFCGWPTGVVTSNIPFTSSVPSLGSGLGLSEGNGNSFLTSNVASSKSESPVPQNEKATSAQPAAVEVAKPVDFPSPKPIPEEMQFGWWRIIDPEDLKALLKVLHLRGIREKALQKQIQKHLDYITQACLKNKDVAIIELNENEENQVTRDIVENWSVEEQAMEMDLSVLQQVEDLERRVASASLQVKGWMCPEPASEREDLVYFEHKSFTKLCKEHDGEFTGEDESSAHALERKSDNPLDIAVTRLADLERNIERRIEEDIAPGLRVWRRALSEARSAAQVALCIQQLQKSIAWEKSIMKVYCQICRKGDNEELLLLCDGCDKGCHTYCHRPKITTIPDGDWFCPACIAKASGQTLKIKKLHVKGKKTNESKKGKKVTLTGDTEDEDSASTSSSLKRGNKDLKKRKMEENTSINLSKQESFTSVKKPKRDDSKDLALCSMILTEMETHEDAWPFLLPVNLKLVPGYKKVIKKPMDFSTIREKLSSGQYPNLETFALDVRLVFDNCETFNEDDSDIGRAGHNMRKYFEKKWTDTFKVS

Q: Which Potency does the source give for `COc1cccc(C(c2nnnn2Cc2ccc(F)cc2)N2CCC(C(N)=O)CC2)c1OC` (centres undefined) here?
A: inconclusive: 89.1 µM [inhibitor, single point]

Q: How did the Potency turn out when `O=C(CSc1nnnn1-c1ccc(F)cc1)NC1CCCCC1` was run?
A: inactive

Q: How did the Potency turn out when `COc1ccc(OC)c(-c2csc(NC(=O)CSc3ccc(Br)cc3)n2)c1` was run?
A: inconclusive: 44.7 µM [inhibitor, partial curve]

Q: How did the Potency turn out when `S=C(NC1CCCCC1)N1CCc2[nH]c3ccccc3c2C1` was run?
A: inactive

Q: With `O=C(NCCc1ccccn1)c1ccc(OC2CCN(Cc3ccccn3)CC2)cc1` as the compound, how does the Potency read?
A: inconclusive: 89.1 µM [inhibitor, single point]

Q: `Cc1[nH]c2ccccc2c1N=Nc1cccc(C(=O)O)c1` was tested. Which Potency did it give?
A: inconclusive: 79.4 µM [inhibitor, single point]

Q: `O=S(=O)(c1ccc(F)cc1)N1CCN(Cc2ccccc2C(F)(F)F)CC1` was tested. Which Potency did it give?
A: active: 28.2 µM

Q: How did the Potency turn out when `O=C(O)CC(C(=O)OCC1CCCO1)N1CCOCC1` (centres undefined) was run?
A: inactive

Q: `Cc1cc(C)cc(Nc2cc(=O)n(C3CCCCC3)c(=O)[nH]2)c1` was tested. Which Potency did it give?
A: inactive

Q: For `COc1ccccc1NC(=O)c1cc2cc(Br)ccc2cc1O`, which Potency is on record?
A: active: 50.1 µM

Q: With `OC12CCCCC1C(c1ccc3c(c1)OCO3)N(Cc1cccc(F)c1)CC2` (centres undefined) as the compound, how does the Potency read?
A: inconclusive: 44.7 µM [inhibitor, partial curve]

Q: How did the Potency turn out when `CCC1CSC(Nc2ccc(C(=O)/C=C/c3ccc(Oc4ccccc4)cc3)cc2)=N1` (centres undefined) was run?
A: inconclusive: 39.8 µM [inhibitor, partial curve]

Q: How did the Potency turn out when `CCN1CCN(c2ncc3c(n2)CCN(Cc2cc(Br)cs2)C3)CC1` was run?
A: active: 50.1 µM

Q: With `CCC(C)NC(=O)c1cc2cc(S(=O)(=O)N3CCCCC3)ccc2n1C` (centres undefined) as the compound, how does the Potency read?
A: inactive

Q: How did the Potency turn out when `O=C(N/N=C/c1cc(Cl)cc([N+](=O)[O-])c1O)NC12CC3CC(CC(C3)C1)C2` was run?
A: active: 8.91 µM

Q: How did the Potency turn out when `Cc1cc(OCC(=O)NN2C(=O)c3ccccc3C2=O)ccc1Cl` was run?
A: inconclusive: 89.1 µM [inhibitor, single point]

Q: `O=C(CSc1ccsc1[N+](=O)[O-])N1CCN(c2ccc(Cl)cc2)CC1` was tested. Which Potency did it give?
A: inconclusive: 35.5 µM [inhibitor, partial curve]

Q: How did the Potency turn out when `Cc1ccc(-n2cc(CN3CCNC(=O)CC3)c(-c3cccc(C)c3)n2)cc1` was run?
A: inconclusive: 17.8 µM [inhibitor, full curve]

Q: For `Oc1ccc(-c2nc(-c3ccc(F)cc3)c(-c3ccncc3)[nH]2)cc1`, which Potency is on record?
A: inconclusive: 79.4 µM [inhibitor, single point]

Q: With `CCS(=O)(=O)c1ccc2oc(Nc3cc(Cl)ccc3OC)nc2c1` as the compound, how does the Potency read?
A: inactive

Q: With `CCCCn1nc(C(=O)N2CCN(S(=O)(=O)c3ccccc3)CC2)c2ccccc2c1=O` as the compound, how does the Potency read?
A: inactive

Q: Which Potency does the source give for `CCCCCCOc1ccc(/C=C/C(=O)Nc2sc3c(c2C(=O)OC)CCC3)cc1OC` here?
A: inactive

Q: `N#Cc1ccccc1NS(=O)(=O)c1cc2c3c(c1)CCC(=O)N3CCC2` was tested. Which Potency did it give?
A: inactive

Q: Which Potency does the source give for `CCc1ccc2c(c1)/C(=N/N(C)C(=S)NC)C(=O)N2` here?
A: active: 10 µM

Q: `O=C(N/N=C/c1cccnc1)c1cc(O)c(O)c(O)c1` was tested. Which Potency did it give?
A: active: 44.7 µM

Q: Which Potency does the source give for `CCN(c1ccccc1)S(=O)(=O)c1cc2c(cc1C)N(C)CCO2` here?
A: inconclusive: 44.7 µM [inhibitor, partial curve]

Q: With `CCc1nnc(NC(=O)CCC(=O)Nc2ccc(C)cc2)s1` as the compound, how does the Potency read?
A: inactive

Q: For `COc1ccccc1CNC(=O)C(=O)Nc1nccs1`, which Potency is on record?
A: inactive

Q: Which Potency does the source give for `O=C(CN1CCN(c2ccccc2)CC1)Nc1nccs1` here?
A: inconclusive: 89.1 µM [inhibitor, single point]

Q: Which Potency does the source give for `COc1cc(/C=N/N(C)c2ccccc2)cc(Cl)c1O` here?
A: active: 44.7 µM

Q: With `Cc1ccc(NC(=O)CCn2nnc3ccccc32)c(C)c1` as the compound, how does the Potency read?
A: inconclusive: 70.8 µM [inhibitor, single point]

Q: How did the Potency turn out when `CCc1nnc2c(N3CCN(c4cccc(C)c4)C(C)C3)nc3ccccc3n12` (centres undefined) was run?
A: inconclusive: 3.16 µM [inhibitor, full curve]

Q: Which Potency does the source give for `COc1cc(/C=C/c2sc3ccccc3[n+]2CCCS(=O)(=O)[O-])ccc1O` here?
A: active: 44.7 µM

Q: How did the Potency turn out when `CC(C)c1nc(SCC(=O)Nc2cccc(S(N)(=O)=O)c2)n[nH]1` was run?
A: inconclusive: 11.2 µM [inhibitor, single point]

Q: For `CCN(CC)CCN(C(=O)c1ccc(N2C(=O)CCC2=O)cc1)c1nc2cc3c(cc2s1)OCO3`, which Potency is on record?
A: inconclusive: 56.2 µM [inhibitor, partial curve]

Q: For `Cn1c(=O)c(C(=O)CN2CCCCCC2)c(N)n(Cc2ccccc2)c1=O`, which Potency is on record?
A: inactive

Q: For `Fc1ccc(Br)cc1C1C=C(c2ccc(Br)s2)Nc2ncnn21` (centres undefined), which Potency is on record?
A: inconclusive: 89.1 µM [inhibitor, single point]

Q: With `Cc1ccc(N2C(=O)CC(c3ccccc3F)C3=C2COC3=O)cc1Cl` (centres undefined) as the compound, how does the Potency read?
A: inactive

Q: `c1ccc(-c2nc[nH]c2-c2ccccc2)cc1` was tested. Which Potency did it give?
A: inconclusive: 44.7 µM [inhibitor, partial curve]

Q: How did the Potency turn out when `COc1cc2[nH]c(=O)n(C3CCCCC3)c(=O)c2cc1OC` was run?
A: inactive

Q: With `O=C(NCCc1c[nH]c2ccccc12)c1ccc(S(=O)(=O)NCc2ccco2)cc1` as the compound, how does the Potency read?
A: inconclusive: 79.4 µM [inhibitor, single point]

Q: Which Potency does the source give for `COc1ccc(/C=C/C(=O)OCC(=O)N2CC(=O)Nc3ccccc32)cc1S(=O)(=O)N1CCOCC1` here?
A: inactive

Q: With `COc1ccc(CNC(=O)c2cnc3sc(N4CCC(C)CC4)nn3c2=O)c(OC)c1` as the compound, how does the Potency read?
A: inactive

Q: For `Cc1ccc(O)c(CNc2nc3ccccc3[nH]2)c1`, which Potency is on record?
A: inconclusive: 79.4 µM [inhibitor, single point]

Q: With `CCN(CCNC(=O)C1CCN(Cc2nc(-c3ccc(Cl)cc3)oc2C)CC1)c1ccccc1` as the compound, how does the Potency read?
A: active: 14.1 µM

Q: For `COc1ccc(NC(=O)COc2cc(C)cc(C)c2)cc1S(=O)(=O)N1CCCCC1`, which Potency is on record?
A: inactive

Q: How did the Potency turn out when `O=C(/C=C/c1ccccc1[N+](=O)[O-])Oc1ccccc1` was run?
A: inconclusive: 35.5 µM [inhibitor, partial curve]

Q: `CC1Cc2ccccc2N1C(=O)CN1C(=O)CN(C)C(=O)c2ccccc21` (centres undefined) was tested. Which Potency did it give?
A: inconclusive: 79.4 µM [inhibitor, single point]

Q: Which Potency does the source give for `CN1CCN(c2oc(Cc3cccc4ccccc34)nc2C#N)CC1` here?
A: inconclusive: 39.8 µM [inhibitor, partial curve]

Q: With `COc1ccc(-c2nc3c(c(SCC(=O)Nc4cccc(O)c4)n2)Cc2c(CO)cnc(C)c2O3)cc1` as the compound, how does the Potency read?
A: inconclusive: 79.4 µM [inhibitor, single point] and inconclusive: 79.4 µM [inhibitor, partial curve]

Q: With `Cc1ccc(CN2COc3ccc4c(C)cc(=O)oc4c3C2)cc1` as the compound, how does the Potency read?
A: inactive

Q: For `Cc1c(NC(=O)Oc2ccccc2)sc(=S)n1C`, which Potency is on record?
A: inconclusive: 10 µM [inhibitor, single point]

Q: With `O=C(N(c1ccccn1)c1ccccn1)C12CC3CC(CC(C3)C1)C2` as the compound, how does the Potency read?
A: inactive

Q: With `CC1=CC(C)[C@@H]2COC(c3ccc(O)cc3)[C@H]1C2C` (some centres undefined) as the compound, how does the Potency read?
A: inactive

Q: With `CCOC(=O)c1nn(-c2ccccc2C)c(=O)cc1OCC(=O)N1CCN(c2ccccc2)CC1` as the compound, how does the Potency read?
A: inactive

Q: `CC(C)c1ccc(C2Sc3ccccc3NC3=C2C(=O)c2ccccc23)cc1` (centres undefined) was tested. Which Potency did it give?
A: active: 8.91 µM

Q: `O=C(COC(=O)c1cc([N+](=O)[O-])ccc1N1CCOCC1)Nc1cccc(F)c1` was tested. Which Potency did it give?
A: inconclusive: 70.8 µM [inhibitor, single point]

Q: `CCSc1nnc(NC(=O)CSc2nnc(Cc3cccn3C)n2CCc2ccccc2)s1` was tested. Which Potency did it give?
A: inconclusive: 56.2 µM [inhibitor, partial curve]

Q: For `COC(=O)COc1ccc(C2C(C(=O)OC)=C(C)NC3=C2C(=O)c2ccccc23)cc1OC` (centres undefined), which Potency is on record?
A: active: 25.1 µM

Q: Which Potency does the source give for `CN(C(=S)Nc1ccc(SC(F)F)cc1)c1ccc(O)cc1` here?
A: inconclusive: 79.4 µM [inhibitor, single point]

Q: `Cc1ccccc1Cn1c(CN2CCC(C(=O)NCc3cccnc3)CC2)cc2ccccc21` was tested. Which Potency did it give?
A: inconclusive: 39.8 µM [inhibitor, full curve, poor fit]

Q: Which Potency does the source give for `CCCOc1ccc(C(C)(O)CN2CCOCC2)cc1` (centres undefined) here?
A: inconclusive: 89.1 µM [inhibitor, single point]

Q: How did the Potency turn out when `COc1ccc(Cl)cc1NC(=S)NCCc1c[nH]c2ccccc12` was run?
A: active: 39.8 µM

Q: How did the Potency turn out when `O=C(Nc1ccc(O)cc1)c1ccccc1OCc1ccccc1` was run?
A: inconclusive: 70.8 µM [inhibitor, single point]

Q: With `CCc1ccc(NC(=S)NC(=O)c2c(-c3ccccc3Cl)noc2C)cc1` as the compound, how does the Potency read?
A: inconclusive: 79.4 µM [inhibitor, single point]

Q: How did the Potency turn out when `COc1ccc(/C=C2\SC(=S)N(CCCC(=O)Nc3ccccn3)C2=O)cc1OC` was run?
A: inconclusive: 35.5 µM [inhibitor, full curve, poor fit]

Q: `C/C=C/C=C/C(=O)N1CC[C@]23c4ccccc4N[C@H]4N(C)c5cccc6c5[C@]42CCN([C@H]6C2OC2(C)C)[C@H]13` (some centres undefined) was tested. Which Potency did it give?
A: active: 50.1 µM

Q: Which Potency does the source give for `CCOc1cc2[nH]c(=S)n(Cc3ccc(C(=O)NCCCN4CCOCC4)cc3)c(=O)c2cc1OCC` here?
A: inactive

Q: `O=C(Nc1nc(NC(=O)c2ccco2)n(-c2ccccc2)n1)c1ccccc1` was tested. Which Potency did it give?
A: active: 44.7 µM

Q: For `COc1ccc(C(=O)Nc2cccc(-c3cn4ccsc4n3)c2)cc1OC`, which Potency is on record?
A: inactive

Q: For `Cc1cc2ncn(/N=C/c3ccc(-c4ccccc4)o3)c2cc1C`, which Potency is on record?
A: inconclusive: 35.5 µM [inhibitor, partial curve]

Q: Which Potency does the source give for `N#C/C(=N\Nc1cccc(C(F)(F)F)c1)C(=O)c1csc(-c2cccnc2)n1` here?
A: active: 28.2 µM

Q: For `COc1ccc(-c2csc(N(CCCN(C)C)C(=O)c3ccc(C)cc3)n2)cc1`, which Potency is on record?
A: inconclusive: 89.1 µM [inhibitor, single point]

Q: `C=Cc1ccc(N=Cc2c(O)ccc3ccccc23)cc1` was tested. Which Potency did it give?
A: inactive
